Laboratory results: PMC4336329 (PLoS ONE, 2015)
The campaign covered roughly 310,000 compounds. About 14,000 (4.5%) showed an effect of 50% or more. The effect is printed as a negative number. This is one part of the list.

biological target: human ether-à-go-go-related gene (hERG) potassium channel (human, UniProt Q12809); assay: primary screen, population patch clamp on CHO cells stably expressing hERG
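Also: peak tail current of the secondary pulse compared with the same well before compound.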

Chain of human ether-à-go-go-related gene (hERG) potassium channel (Q12809 whole entry, looked up): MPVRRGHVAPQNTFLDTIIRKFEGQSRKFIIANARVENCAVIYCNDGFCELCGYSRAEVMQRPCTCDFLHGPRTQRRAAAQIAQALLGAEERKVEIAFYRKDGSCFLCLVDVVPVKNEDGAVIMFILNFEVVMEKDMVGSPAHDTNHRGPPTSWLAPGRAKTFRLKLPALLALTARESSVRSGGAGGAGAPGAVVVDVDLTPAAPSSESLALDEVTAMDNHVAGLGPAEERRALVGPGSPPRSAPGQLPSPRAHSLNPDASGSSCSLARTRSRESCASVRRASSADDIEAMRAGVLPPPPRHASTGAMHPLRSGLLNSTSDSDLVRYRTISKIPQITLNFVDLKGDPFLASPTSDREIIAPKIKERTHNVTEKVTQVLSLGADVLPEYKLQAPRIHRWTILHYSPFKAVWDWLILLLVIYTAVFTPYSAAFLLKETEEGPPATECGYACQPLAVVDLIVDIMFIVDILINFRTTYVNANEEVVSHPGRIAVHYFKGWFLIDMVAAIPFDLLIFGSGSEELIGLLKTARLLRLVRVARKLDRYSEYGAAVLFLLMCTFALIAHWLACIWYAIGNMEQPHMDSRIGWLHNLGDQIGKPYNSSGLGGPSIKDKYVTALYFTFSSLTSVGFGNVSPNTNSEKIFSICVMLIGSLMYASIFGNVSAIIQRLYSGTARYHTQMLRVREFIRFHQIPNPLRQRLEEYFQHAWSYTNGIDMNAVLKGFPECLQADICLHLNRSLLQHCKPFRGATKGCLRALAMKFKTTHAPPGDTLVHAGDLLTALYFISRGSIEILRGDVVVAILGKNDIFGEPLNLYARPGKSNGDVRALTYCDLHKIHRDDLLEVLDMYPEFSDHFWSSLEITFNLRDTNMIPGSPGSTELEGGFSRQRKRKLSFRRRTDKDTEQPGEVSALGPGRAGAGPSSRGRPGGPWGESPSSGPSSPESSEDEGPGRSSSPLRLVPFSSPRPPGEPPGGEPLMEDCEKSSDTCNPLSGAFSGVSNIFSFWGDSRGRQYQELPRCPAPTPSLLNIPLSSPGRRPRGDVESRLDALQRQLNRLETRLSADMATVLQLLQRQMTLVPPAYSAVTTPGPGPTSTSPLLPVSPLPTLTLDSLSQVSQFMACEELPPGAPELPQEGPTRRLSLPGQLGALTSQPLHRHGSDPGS

SMILES	hERG current change (%, negative = inhibition) at 10uM [%]
CCOc1ccc(C(=O)NCCN(C)C)cc1	-10.8
CCN1CCN(c2nc(N)c([N+](=O)[O-])c(Nc3ccc(C)c(C)c3)n2)CC1	-6.91
COc1cc(OC)cc(C(=O)Nc2nnc(NC(=S)Nc3ccccc3)s2)c1	25
Cc1ccc(N(C(=O)CNC(=O)c2ccco2)C(C(=O)NC2CCCC2)c2cccnc2)c(C)c1 (stereo not drawn)	10.1
COc1ccc(C2CC(=O)C(C=NCCN3CCN(C(=S)Nc4ccccc4)CC3)=C(O)C2)cc1 (stereo not drawn)	-32.8
CCc1nc(NCCCn2ccnc2)c2oc3ccccc3c2n1.Cl	-56.1
CCN1C(=O)[C@@H]2[C@H](C1=O)[C@@H]1C(=O)Nc3ccccc3C(=O)N1[C@@H]2c1cccc(Cl)c1	-39.1
O=C(CSc1ccc2nnc(-c3ccccn3)n2n1)NCC1CCCO1 (stereo not drawn)	-8.53
CS(=O)(=O)Nc1ccc2[nH]c(=O)[nH]c2c1	17.4
CCCc1c(C(=O)Nc2cc(C)on2)cnn1-c1ccccc1	8.73
O=C(N/N=C/c1ccccc1Br)c1cccc(S(=O)(=O)N2CCOCC2)c1	-18.2
C=CCn1cc([N+](=O)[O-])nc1C	8.88
CCOC(=O)N1CCN(S(=O)(=O)c2ccc(OCC(=O)OC)c(C)c2)CC1	-27.2
CCC(=O)c1ccc(N2CCN(C(=O)c3ccc(Br)cc3)CC2)c(F)c1	-16
COC(=O)c1ccc(NC(=S)NC2CCCCC2C)cc1 (stereo not drawn)	-17.1
CCOc1ccccc1C1c2cc3c(cc2OC(C)(N2CCCC2)C1C)OCO3 (stereo not drawn)	-8.46
Cc1cc2oc(=O)cc(CN3CCN(S(=O)(=O)c4cccs4)CC3)c2cc1C(C)C	0.126
COC(=O)C/C=C/[C@@H](C)[C@@H](/C=N/OC[C@H]1O[C@H](c2ccccc2)C=C[C@@H]1Oc1ccc(OC)cc1)OC	-1.9
O=C(O)C(=O)O.c1ccc(-c2ccccc2OCCCCN2CCCCCC2)cc1	-77.5
CCOP(=O)(OCC)C(O)c1ccc(N(C)C)cc1 (stereo not drawn)	10.5
CCOC(=O)c1c(C2CC2)csc1NC(=O)COC(=O)c1ccc[n+]([O-])c1	-11
Cc1ccc(N(CC(=O)Nc2cccc(N(C)S(C)(=O)=O)c2)S(C)(=O)=O)cc1	-0.107
COc1ccc(N2C(=O)CN=C2Nc2nc(C)cc(C)n2)cc1OC	-4.68
Cc1oc2c(C)c3oc(=O)c(CC(=O)N[C@@H](CCCNC(N)=O)C(=O)O)c(C)c3cc2c1C	7.9
CCC(C(=O)OCC(=O)Nc1c(C)nn(-c2ccccc2)c1C)c1ccccc1 (stereo not drawn)	-17.1
O=C(Nc1ccc(N2CCN(C(=O)c3cccs3)CC2)cc1)c1cccnc1	-7.59
COc1ccc(C)cc1S(=O)(=O)N1CCC(C(=O)N2CCOCC2)CC1	-9.35

SMILES	hERG current change (%, negative = inhibition) at 10uM [%]
COC(=O)CC1=C(C)C(=O)CC2C(C)(C)CCCC12C (stereo not drawn)	-5.46
O=c1[nH]cnc2c1ncn2[C@H]1CC[C@@H](CO)O1	12.2
CC(=O)Nc1ccccc1C(=O)C(=O)Nc1cccc(Br)c1	2.76
O=C(CSc1c2c(nc3ccc(Cl)cc13)CCCC2)NCc1ccco1	-20.2
COc1ccccc1C1C(C#N)=C(N)Oc2cc(C)n(CCCn3ccnc3)c(=O)c21 (stereo not drawn)	-3.33
Cn1c(Cl)nc2ccccc21	0.419
COc1ccc([N+](=O)[O-])cc1NC(=O)C(C)OC(=O)/C=C/c1ccco1 (stereo not drawn)	-8.55
O=C1NC(Cc2c[nH]c3ccccc23)C(=O)N1CCOc1ccc(F)cc1 (stereo not drawn)	-16.8
Cc1cc(C)c(C)c(OCCCCn2cnc3ccccc3c2=O)c1	-3.01
Cc1ccc2c(Cl)cc(Cl)c(OCC(=O)Nc3cc(S(=O)(=O)N(C)C)ccc3C)c2n1	10.6
CC1(C)C(=O)Nc2ccccc2N1C(=O)COc1ncnc2c(Cl)cc(Cl)cc12	-9.51
COc1nc(N/N=C/c2cc3c(cc2Br)OCO3)nc(N2CCOCC2)n1	-27.8
C=CCn1c(SCC(=O)c2[nH]c(C)c(C(=O)OCC)c2C)nc2scc(-c3ccc(OC)c(OC)c3)c2c1=O	30
Cc1ccc(C(=O)Nc2sc3c(c2C(=O)O)CCCC3)o1	24.8
COc1ccccc1C(=O)NCCC(=O)Nc1ccc(OC(F)(F)F)cc1	-3.85
Cc1ccc2nc(/C(C#N)=C\c3ccc(N4CCOCC4)o3)[nH]c2c1	-10.3
C/C(CC(=O)Nc1ccccn1)=N\NC(=O)c1ccccc1	2.22
CC(C)(C)c1ccc(OCCCC(=O)Nc2ccc(S(N)(=O)=O)cc2)cc1	-25.8
COc1ccc(NC(=O)N2CCC(n3cnc4ccccc43)CC2)cc1	-28.5
CN(C)C(=O)C1C2NC(=S)N(c3ccc(Cl)cc3)C1(C)Oc1ccc(Cl)cc12 (stereo not drawn)	-3.96
Cc1ccccc1-n1nc(C)c2c(C(=O)NN)cc(-c3ccncc3)nc21	38.5
CC(=O)Nc1ccc(NC(=O)C/C(C)=N/NC(=O)c2cccc3ccccc23)cc1	0.867
COc1cc(OC)c(OC)cc1/C=N/NC(=O)CSc1ccccc1F	0.803
O=C(C[n+]1ccc(C(=O)c2ccccc2)cc1)Nc1ccc(C(F)(F)F)cc1.[Cl-]	-11.6
O=C(COC(=O)c1ccc(Br)o1)NCCNC(=O)COC(=O)c1ccc(Br)o1	12
CCCOc1ccc(C(=O)NCCCn2ccnc2)cc1	-12.7
CCOc1ccccc1OCC(=O)Nc1ccc(S(=O)(=O)Nc2nc(C)cc(C)n2)cc1	-8.26
